Test results as given in publication PMC7819943, “Rice protein-binding microarrays: a tool to detect cis-acting elements near promoter regions in rice”.
The list shows a part of the results.

target: T1, OsWOX13 (Oryza sativa, UniProt Q5QMM3 1-267); test: protein-binding microarray (RPBM); PBS, 2% BSA, 51.3 ng/ul salmon testes DNA, 50 uM zinc acetate, 200 nM TF, 25 C, 1 h; high values mean tight binding; settings: protein: recombinant; tags: N-terminal polyhistidine and DsRed monomer fusion (pET32a); label: CyDye5-dUTP incorporated in the synthesized complementary strand; 3' TTTTT single-stranded linker to array surface; dsDNA, one strand shown
T1 sequence: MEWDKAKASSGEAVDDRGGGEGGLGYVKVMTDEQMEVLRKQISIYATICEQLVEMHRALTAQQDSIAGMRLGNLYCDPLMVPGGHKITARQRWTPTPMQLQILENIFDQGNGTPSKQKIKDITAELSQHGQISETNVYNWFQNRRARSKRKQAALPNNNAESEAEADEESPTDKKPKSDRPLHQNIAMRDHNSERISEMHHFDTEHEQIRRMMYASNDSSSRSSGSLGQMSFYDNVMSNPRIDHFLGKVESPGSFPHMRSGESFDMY
Outline: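 An Axon 4000B scanner gave the binding signal as per-feature fluorescence intensity in arbitrary units. This followed washing of a custom Agilent array that had been incubated for 1 h at 25 °C with 200 nM protein in PBS, 2% BSA, salmon testes DNA and 50 µM zinc acetate. The proteins were transcription factors fused at the N-terminus to polyhistidine and DsRed, expressed in E. coli BL21-CodonPlus and purified on Ni–NTA.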

Sequence | binding signal
AATTTCAATTAAACTTTTAAATTTAACGTGAATTAAACACCGGAGTCACCTAGTGCAG | 19600 fluorescence intensity (a.u.)
ATCAATTGCTTGCTGATTTGCCTTAGCAAGTCTTCAATTTCGGAGTCACCTAGTGCAG | 12900 fluorescence intensity (a.u.)
CCTGATCAGTTAATTAGCCTATACGGTACCTCCAAACATTCGGAGTCACCTAGTGCAG | 25900 fluorescence intensity (a.u.)
AGAAATTTAAAATCTTGATAGTTTACTCTTTATTGGCTCTCGGAGTCACCTAGTGCAG | 3560 fluorescence intensity (a.u.)
ATTCATTAATCTGTACTAATTGATATTGCTAAGCAGCTGCCGGAGTCACCTAGTGCAG | 34200 fluorescence intensity (a.u.)
ACCCAGCTAGTTTAAATTAAATGAATGATCAAAGGGCATTCGGAGTCACCTAGTGCAG | 3500 fluorescence intensity (a.u.)
GAAGGATTGAGATATGATTGATTATTATATCATATACTCTCGGAGTCACCTAGTGCAG | 55000 fluorescence intensity (a.u.)
GGCTGGTTATTGATGGATCCAAACCGAACACCAACGGCGGCGGAGTCACCTAGTGCAG | 8030 fluorescence intensity (a.u.)
ACGTATAAATTATTTATCCCGTACACGCCACCTTCATCTACGGAGTCACCTAGTGCAG | 15000 fluorescence intensity (a.u.)
ATTAAGGAATTAAATTTGAAAATATACTATTCATTTAATTCGGAGTCACCTAGTGCAG | 3360 fluorescence intensity (a.u.)
AAATAAAAGGTAATTTATAAATAAAACTTTTATATACATGCGGAGTCACCTAGTGCAG | 12100 fluorescence intensity (a.u.)
TTAAATTCCAATTTTACACCTCTAAAATATTTTACTACCCCGGAGTCACCTAGTGCAG | 6110 fluorescence intensity (a.u.)
GCTTACCACTAAATTGCCTGTCATGCAACTACAATCAACCCGGAGTCACCTAGTGCAG | 12500 fluorescence intensity (a.u.)
AGTAGTTTCAGTCAATCTAAATGTAAACAATCACATAATCCGGAGTCACCTAGTGCAG | 11200 fluorescence intensity (a.u.)
TAGTCTTTGTTTGATTGGGCATTCTATAAATCGAGAAAATCGGAGTCACCTAGTGCAG | 6780 fluorescence intensity (a.u.)
TATGATTTTCCACCCTTGAAGGGTATGTTCAAATTTTAGCCGGAGTCACCTAGTGCAG | 6230 fluorescence intensity (a.u.)
TGGGCATATCTGCGGACGCAGTAAGGGCAGTTCCAACCCACGGAGTCACCTAGTGCAG | 10700 fluorescence intensity (a.u.)
ACAAAACTTTCAAATTTAGCCGTTCTAAAATTGAAACCCTCGGAGTCACCTAGTGCAG | 4400 fluorescence intensity (a.u.)
GATAAAATGATAAATAATTATATTAGGATTTGATAAAGTACGGAGTCACCTAGTGCAG | 21800 fluorescence intensity (a.u.)
TGGATTTATATATCTTGATTTGTCATTAAGAATATCATGGCGGAGTCACCTAGTGCAG | 7160 fluorescence intensity (a.u.)
CAAACTCCACTTGATTACTTCATCGTGCCGACGTCGACACCGGAGTCACCTAGTGCAG | 7260 fluorescence intensity (a.u.)

Sequence | binding signal
ACTTGATTTCTACATATGGTTATCGGAGGGAACTGGACTTCGGAGTCACCTAGTGCAG | 12000 fluorescence intensity (a.u.)
ATTAATTTGAGAGAAAACTTTGTAAGAAGGGAAAACAATACGGAGTCACCTAGTGCAG | 6610 fluorescence intensity (a.u.)
TGATGATTAGTCGATTACTGTTTTCCTATAGCCATCGTTACGGAGTCACCTAGTGCAG | 30100 fluorescence intensity (a.u.)
AGGCTGTTGCAATCAGAGGTAATTAATTACTTGCTCTATACGGAGTCACCTAGTGCAG | 28100 fluorescence intensity (a.u.)
ATTAATATCCATCATGTTCCTCCAATTAGTTTTATAAAGCCGGAGTCACCTAGTGCAG | 7890 fluorescence intensity (a.u.)
CTTCTTCTCATAATTGGTTGGTCGCTAGTTAACACTAAATCGGAGTCACCTAGTGCAG | 5330 fluorescence intensity (a.u.)
AAAATTCATGATTGATTTTGTAGTGGATCAACCTTGCCAACGGAGTCACCTAGTGCAG | 52400 fluorescence intensity (a.u.)
GAGATTGCTTCAAACTGAGAGCCTGAGGATTCACACCCCACGGAGTCACCTAGTGCAG | 5240 fluorescence intensity (a.u.)
ATTTAATTTAATTTAATTGTTCCTCCTCTTCTTCTTCTCTCGGAGTCACCTAGTGCAG | 41000 fluorescence intensity (a.u.)
GATTTAACTGATAGAACAAATATTCAACACGCATTGTGTACGGAGTCACCTAGTGCAG | 22300 fluorescence intensity (a.u.)
CTAACAAATTGTTGGCCACACTATATTTGCCGTGCCATACCGGAGTCACCTAGTGCAG | 5260 fluorescence intensity (a.u.)
CACTAATTTTGCCTTTGTGCCTTTTACTATTGCGCATCACCGGAGTCACCTAGTGCAG | 14500 fluorescence intensity (a.u.)
TCCATGACAACTACACATAATTGCGGACCACATTAACTCCCGGAGTCACCTAGTGCAG | 7100 fluorescence intensity (a.u.)
TTTATTAATTTGCGTGTGAAACTGACATGTGGGTCTCATGCGGAGTCACCTAGTGCAG | 34000 fluorescence intensity (a.u.)
CCTCCTGCTAATTTGTCTGGTGAACAATGCCACAGGTAATCGGAGTCACCTAGTGCAG | 6040 fluorescence intensity (a.u.)
TAGATGATTGCACTAGATTTTGCTTTGTGTACTTATTGAACGGAGTCACCTAGTGCAG | 32900 fluorescence intensity (a.u.)
TCTCCCATCCAATTAAAGTACAGTCAAGCAAATTATGGCCCGGAGTCACCTAGTGCAG | 5250 fluorescence intensity (a.u.)
GGTCTAGATTAATTATACTACCACAAAACAAGGATATCATCGGAGTCACCTAGTGCAG | 17700 fluorescence intensity (a.u.)
TTGATTGGAATACGGTGGATGATACTGAAGTAGACAAGAACGGAGTCACCTAGTGCAG | 17700 fluorescence intensity (a.u.)
ATAGACGCGATTGGACTTTAATTGCCGTCAGGGATTTTAACGGAGTCACCTAGTGCAG | 10800 fluorescence intensity (a.u.)
CGTGGGGCCATGATTGGCAAGGTGATTTTGGCTGCTCAAACGGAGTCACCTAGTGCAG | 28000 fluorescence intensity (a.u.)
